# Experimental data from the supplement of paper PMC3334620.
# Whole data set: some 33,000 sequences, median “E-score (-0.5 to 0.5)” near -0.021, cut for the highest 2% near 0.32. The list shows a part of the results.
# Molecular target: T1, Zap1 (UniProt P47043)
# T1 sequence: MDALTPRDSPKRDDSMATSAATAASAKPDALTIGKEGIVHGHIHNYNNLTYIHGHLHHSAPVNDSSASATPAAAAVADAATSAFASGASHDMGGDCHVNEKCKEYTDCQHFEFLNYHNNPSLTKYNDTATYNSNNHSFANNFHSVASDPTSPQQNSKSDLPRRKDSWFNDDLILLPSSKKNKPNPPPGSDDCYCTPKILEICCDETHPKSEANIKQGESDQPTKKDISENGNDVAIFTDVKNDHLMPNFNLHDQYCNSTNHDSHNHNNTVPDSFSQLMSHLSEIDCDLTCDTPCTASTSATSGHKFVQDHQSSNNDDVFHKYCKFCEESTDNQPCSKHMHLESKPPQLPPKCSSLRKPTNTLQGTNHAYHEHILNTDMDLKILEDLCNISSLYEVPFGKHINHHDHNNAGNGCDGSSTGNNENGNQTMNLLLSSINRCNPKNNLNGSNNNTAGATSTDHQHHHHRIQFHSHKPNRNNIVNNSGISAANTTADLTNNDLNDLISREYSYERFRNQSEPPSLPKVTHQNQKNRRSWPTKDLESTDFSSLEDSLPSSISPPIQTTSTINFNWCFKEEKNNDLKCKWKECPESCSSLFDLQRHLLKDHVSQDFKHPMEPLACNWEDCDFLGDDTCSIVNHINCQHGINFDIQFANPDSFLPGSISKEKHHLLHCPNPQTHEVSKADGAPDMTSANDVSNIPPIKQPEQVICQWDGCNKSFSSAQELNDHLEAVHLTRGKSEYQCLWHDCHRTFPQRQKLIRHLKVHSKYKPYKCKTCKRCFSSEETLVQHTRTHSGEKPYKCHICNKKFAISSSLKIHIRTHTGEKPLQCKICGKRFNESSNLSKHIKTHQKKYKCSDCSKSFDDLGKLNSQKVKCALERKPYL
# Test: PBM E-score (8-mer binding enrichment) (E-score (-0.5 to 0.5)); higher = stronger / more preferred TF binding; most listed sequences are background and not binding sites
# Settings: protein concentration: 200 nM; construct: GST-full length
# How it was run: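 Yeast transcription factors carrying a GST tag, as full-length proteins or DNA-binding domains, were produced by PURExpress in vitro transcription/translation. About 100-200 nM protein was applied to universal all-10-mer Agilent arrays, double-stranded by primer extension on fresh or once-stripped slides. Bound protein was detected with fluorescent anti-GST, and scans were normalised with masliner. The Universal PBM Analysis Suite gave each ungapped eight-base word, pooled with its reverse complement, an E-score, a modified Wilcoxon-Mann-Whitney statistic.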
row,Sequence,PBM E-score
1,CCGGCGAA,-0.0278
2,AATCCGGG,-0.0144
3,ACCCTGTC,0.193
4,AGTAAGTA,0.0433
5,CGTCACGA,-0.0348
6,CTCTCCCC,-0.205
7,CGGCTACA,0.0447
8,GCTTTTCA,-0.115
9,AGGCACTC,-0.203
10,AATAGATA,0.026
11,GTCACGTA,-0.0578
12,CTCGCGAG,0.203
13,AATGTTGT,-0.0367
14,GGAGCCAC,-0.167
15,ACTATTAT,0.0475
16,CCGCTGCG,-0.127
17,ACTGGTTC,0.0663
18,ATCGAGCA,-0.0854
19,ATGGTCTC,0.179
20,ATACGTAA,0.0782
21,CCAACCAG,-0.0525
22,CGCAGGCA,-0.0398

row,Sequence,PBM E-score
1,CAAATGGG,0.0267
2,CACGCCGA,-0.209
3,ATGGGTGA,0.0908
4,CCGACACG,-0.273
5,CTCTCTAC,-0.0716
6,GGGCACCA,-0.025
7,CGGTCGCA,-0.177
8,GTTCCACA,-0.0745
9,ACAAGTAC,0.0992
10,CACAGCAC,-0.183
11,GGCTACAC,-0.0691
12,AGGACAAG,-0.168
13,AATTTTCG,0.00815
14,GGATCAAA,0.189
15,AAAGACGA,-0.0727
16,GGATCGCC,-0.0607
17,AGGGAGAG,-0.0798
18,GACAGGTA,0.219
19,ATGTTTCA,0.161
20,GAAGGGAC,-0.0755
21,AAGACCAT,0.101
22,CCGGGACC,0.0253

row,Sequence,PBM E-score
1,CGTATATA,-0.0637
2,CTCACAAG,0.138
3,GAGATCAA,0.0561
4,AAGCTGAT,-0.0964
5,CCCCGAAG,-0.0603
6,CCTATAGA,0.026
7,AGTTCTCC,-0.158
8,GCTTGTAA,0.114
9,CTAAATCC,-0.0277
10,ATCCATGG,-0.0192
11,CGGGATTC,0.0975
12,AACGCTAA,-0.143
13,CTTTGGTC,0.212
14,AGGTAGGC,-0.0588
15,AGCACTAA,0.00056
16,CACGTCGA,-0.158
17,CATTGAGG,-0.0652
18,CCTTGGTA,0.177
19,GATATACA,0.0861
20,ACTCCGTG,-0.15
21,AGAGTCCG,-0.152
22,AGAGTTCC,-0.167

row,Sequence,PBM E-score
1,ACCTTGTC,0.106
2,AAACTGGG,-0.0632
3,CTATGCCC,-0.0231
4,ATTACGCA,0.113
5,ATTCCATG,-0.113
6,CGAGGTCC,0.0996
7,AAACCTCT,0.252
8,GACCATCC,-0.012
9,CCGATAAA,0.00825
10,CACAGACA,0.197
11,GGGTGATA,0.277
12,CTCCTAAG,-0.153
13,AGGGGCCG,-0.0406
14,ATGCATTG,0.00167
15,CGCGATAA,0.201
16,CAGATGGA,0.0614
17,ACTACACA,-0.0197
18,ATGAAAAC,0.234
19,TGACAGAA,0.0424
20,AACAGGTC,0.167
21,ATGTCTGC,-0.116
22,AACGACCC,0.191

row,Sequence,PBM E-score
1,GCACTATA,-0.094
2,GTCCATTA,0.124
3,CCCGGAGC,-0.0735
4,TCGCGTCA,-0.134
5,CATCTCCG,-0.0726
6,AAGCCACA,0.0484
7,CCCACTCC,-0.13
8,ATTCTTCC,-0.235
9,GCACACCA,-0.0829
10,CCGCCATA,-0.00973
11,AAGTTTTA,0.214
12,GTTCGAAA,0.134
13,ATAGGTTC,0.138
14,AACCCCCT,-0.187
15,CGTTATCA,0.0155
16,CTTATGAA,0.0314
17,TACAGTAA,0.0576
18,ATTACATG,0.137
19,ATGACGGG,-0.0936
20,CATGGAAG,0.0211
21,AAGCAATC,-0.00425
